Test results reported in the supplement of paper PMC3334620.
Over roughly 33,000 sequences, “E-score (-0.5 to 0.5)” has its median near -0.016; the highest 2% begin near 0.31. Some of the results follow.

Biological target: Cst6 (UniProt P40535)
Assay: PBM E-score (8-mer binding enrichment) (E-score (-0.5 to 0.5)); higher = stronger / more preferred TF binding; most listed sequences are background and not binding sites
Details: protein concentration: 200 nM; construct: GST-DNA-binding domain
Method in brief: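 PURExpress in vitro transcription/translation supplied GST-tagged yeast transcription factors, either full-length or DNA-binding domain. Applied at about 100-200 nM to universal all-10-mer Agilent arrays double-stranded by primer extension, the bound protein was detected with fluorescent anti-GST. E-scores, modified Wilcoxon-Mann-Whitney statistics, were given by the Universal PBM Analysis Suite to ungapped eight-base words pooled with their reverse complements after masliner normalisation.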

Sequence	PBM E-score
GCAGACGA	-0.128
CCGTTAGA	0.0721
AAGTTAGC	0.0182
ATATTCCG	0.0507
CGCGGAGC	-0.23
CATAGTGC	-0.00152
GGTTTGAA	0.14
TATATAGA	0.232
AGGTGCGG	-0.0628
GGTGCACA	-0.05
ATCGAAAG	0.0837
AAGACAGA	0.147
AAACATTT	0.127
GTTCGAAC	0.2
CTTAAGGA	-0.0903
ATGCTCTC	-0.249
ACGTGGCG	0.129
ATACCCGC	0.164
CTACGGGA	-0.264
AGTCGAAG	-0.0655
ACCTCGCT	-0.00948
ACCGCACT	-0.0604
CCTATTTA	-0.0607
AGGAACCC	-0.362
AATAACAG	0.218

Sequence	PBM E-score
CAACAGGA	-0.183
CCCTGGAC	-0.262
GCCTATTA	0.12
CACGACAG	-0.0272
CATGAACA	0.177
AATTCTCC	-0.109
GCCACCCC	-0.249
ACAGACGT	0.0849
CACATATA	0.136
CATTGATA	0.115
TGAAGTCA	0.372
AGCCCGTC	-0.245
AAAACGAA	0.214
CGGATGCC	0.0864
AATATTGG	0.0316
AATGGTTG	0.156
AGGCCGCG	-0.0421
CAAACTCG	-0.131
AGTATGAG	0.0817
CGTTAGAC	0.00283
ATTCGCAC	-0.0389
GATAGAGA	-0.0352
ACCGGAAT	-0.258
GAACGGAA	-1e-05
CAAATGAG	0.0889

Sequence	PBM E-score
AGCTCATA	0.124
ACACAACT	0.0608
AGCATTGA	0.0164
TTCGTAAA	0.23
AGGGAGCA	-0.335
CTGTAGGA	-0.0316
AAGAGGCG	0.0602
AGAGCCAC	-0.0666
AAGCACTT	-0.105
GCCTAGCC	-0.215
CGTGACCA	-0.0809
GCCCGTGA	-0.0557
GCGAGCCC	-0.227
AATAGTCG	-0.00096
CGGTAACA	0.16
CCTAGATA	-0.271
GTGGACTA	-0.0092
GGCAGGCA	-0.193
CCTCAAGC	-0.221
AAGCGGTG	-0.147
CAAATAAA	0.197
ACGCGCCT	0.0749
GTGCGGGA	-0.183
CCCATGAC	0.336
AAGGTATT	0.083

Sequence	PBM E-score
AAAACGTT	0.0179
ACCGGATA	-0.0988
CAATAGTC	0.0352
CTAATGAG	-0.0645
ATGTTACC	0.0741
CCGCACGA	0.0776
ATAGCACG	-0.0423
AGTGCGCG	-0.0765
GTGATCAA	0.205
CAGATAGG	-0.122
AGCGATAC	-0.128
CTGAATAC	0.168
TCATGCAA	0.148
CAGAAAAG	0.126
AAATCTCC	-0.258
AAGTCGAT	-0.0963
AATCCAGC	-0.208
GATACCCC	-0.298
ACTCATCT	0.0268
CAATTCGG	0.0126
CTGGAGAA	-0.204
AGCCCCAA	-0.281
CCACACTA	0.149
CCTATGTC	0.0555
ACGCGCAG	-0.14

Sequence	PBM E-score
GAAATCGC	-0.126
AACTGTTC	-0.117
CCCCCTAG	-0.321
CACATCGA	-0.074
AAGAACAT	0.194
CAAAGTTG	0.117
AAGGGGAT	-0.118
ATATTCGC	0.159
GTCCGAGA	0.0681
CGGCTAGC	-0.149
TCCCCGCA	-0.0633
GGCCAAAC	-0.235
AGTCTTGG	-0.0162
CATTGGCA	-0.0341
AACTCACT	-0.0817
CACTTTGA	-0.0952
CGAATTTA	0.253
GCAATGTA	-0.0392
ACCCCTGC	-0.391
TAGGCATA	-0.0691
GCATTGGC	-0.188
AAGCGCCT	-0.0226
GAGGGCCC	-0.288
TATTATGA	0.268
GCCTGCCC	-0.299

Sequence	PBM E-score
AACCGCGG	0.144
CTGAGTTA	-0.0425
ATTGGATC	0.0799
CGGGAGGC	-0.284
TGGTACAA	-0.0168
ACTAATCC	-0.0346
ATCACGTA	0.344
GCCACACC	0.036
ATTTGTAG	0.168
GCACGTCA	0.459
CCTACAAC	0.0423
CATGTTAG	-0.0475
ATGATTTG	0.0624
AGCCGGCA	-0.233
AGAGCGAT	-0.2
ATCTCAGG	-0.0658
AGCCAACA	-0.0616
ACCAAAGC	0.00829
AGGGTGGG	-0.00684
ACGCGTGC	0.0345
ATTCGCAG	0.152
ACAAGGAG	-0.00622
AAGTTAGA	0.113
ACAAGATG	0.0277
CGAGATAG	-0.17

Sequence	PBM E-score
TAATCCGA	0.0425
CTTAAAAG	-0.18
CCATACAC	0.025
AGCGCGAG	-0.0497
AAGCCACG	0.0393
AAATTGGC	0.0384
AACGGCTG	-0.0838
GCGTTAAC	0.132
CTTTATGC	0.112
ACATCGAG	-0.123
TTGTAAAA	0.137
ACAGAAAT	0.235
TCGAAGAA	0.0665
ACCTGTAA	0.0591
CCCAGTAA	-0.101
AGGCTCAT	-0.0641
ACCAGAAA	-0.0587
CCCTCCAA	-0.13
ACTATCTG	-0.0119
AAGTGCAT	0.248
CCCGCGCG	0.165
GAGAGAAA	0.0857
